Assay results as given in publication PMC10131790.
Results are given in words; binding and its absence hold for the method and conditions named. Binding seen in cells or lysates may run through a third protein. Some entries that bind do so weakly or less than the wild type. For part of these data: Tags and fused reporters may be left off the sequences shown. One block for each binder: values may come before it.

Amino acid sequences for entries named in this document (tags omitted).
UniProt Q04637: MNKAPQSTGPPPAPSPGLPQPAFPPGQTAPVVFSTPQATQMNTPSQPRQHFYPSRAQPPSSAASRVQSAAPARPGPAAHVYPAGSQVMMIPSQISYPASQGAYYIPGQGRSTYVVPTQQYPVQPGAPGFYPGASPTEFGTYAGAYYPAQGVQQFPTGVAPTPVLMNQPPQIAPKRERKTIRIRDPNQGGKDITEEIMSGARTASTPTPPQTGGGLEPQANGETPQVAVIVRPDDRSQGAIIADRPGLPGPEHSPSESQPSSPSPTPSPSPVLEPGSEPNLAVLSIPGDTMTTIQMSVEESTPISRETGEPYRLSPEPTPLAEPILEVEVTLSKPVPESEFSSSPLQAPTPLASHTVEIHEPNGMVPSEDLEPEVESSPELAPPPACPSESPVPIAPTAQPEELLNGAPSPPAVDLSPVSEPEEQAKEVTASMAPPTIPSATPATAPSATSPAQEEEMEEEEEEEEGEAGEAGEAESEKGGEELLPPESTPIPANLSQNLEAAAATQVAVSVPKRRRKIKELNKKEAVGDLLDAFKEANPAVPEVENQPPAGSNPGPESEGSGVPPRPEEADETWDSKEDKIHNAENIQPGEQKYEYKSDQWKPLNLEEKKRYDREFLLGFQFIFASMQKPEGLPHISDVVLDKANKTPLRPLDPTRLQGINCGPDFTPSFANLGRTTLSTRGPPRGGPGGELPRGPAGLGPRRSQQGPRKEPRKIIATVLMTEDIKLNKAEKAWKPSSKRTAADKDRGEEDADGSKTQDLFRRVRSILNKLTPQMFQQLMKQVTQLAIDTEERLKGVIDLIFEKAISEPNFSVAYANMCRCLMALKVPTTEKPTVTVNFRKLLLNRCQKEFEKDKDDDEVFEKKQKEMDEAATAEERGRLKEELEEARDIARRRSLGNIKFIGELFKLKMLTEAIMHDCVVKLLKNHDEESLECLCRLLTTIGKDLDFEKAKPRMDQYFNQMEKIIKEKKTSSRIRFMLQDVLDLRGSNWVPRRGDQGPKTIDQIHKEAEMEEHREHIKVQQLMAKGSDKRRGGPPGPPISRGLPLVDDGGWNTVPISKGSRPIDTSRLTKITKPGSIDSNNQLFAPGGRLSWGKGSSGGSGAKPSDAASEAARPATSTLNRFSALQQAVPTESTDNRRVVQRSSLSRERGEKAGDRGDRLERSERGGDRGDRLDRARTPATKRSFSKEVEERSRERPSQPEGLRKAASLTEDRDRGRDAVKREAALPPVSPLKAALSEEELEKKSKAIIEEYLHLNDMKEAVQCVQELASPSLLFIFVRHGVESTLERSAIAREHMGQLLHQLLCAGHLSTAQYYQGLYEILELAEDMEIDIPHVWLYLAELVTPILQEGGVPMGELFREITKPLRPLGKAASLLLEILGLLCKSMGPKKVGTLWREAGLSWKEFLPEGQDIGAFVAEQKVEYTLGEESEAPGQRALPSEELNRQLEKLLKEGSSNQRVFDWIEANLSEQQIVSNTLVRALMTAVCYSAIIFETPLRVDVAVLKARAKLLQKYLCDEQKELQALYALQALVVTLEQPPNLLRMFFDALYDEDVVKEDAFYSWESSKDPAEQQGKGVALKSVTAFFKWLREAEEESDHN
UniProt P06730: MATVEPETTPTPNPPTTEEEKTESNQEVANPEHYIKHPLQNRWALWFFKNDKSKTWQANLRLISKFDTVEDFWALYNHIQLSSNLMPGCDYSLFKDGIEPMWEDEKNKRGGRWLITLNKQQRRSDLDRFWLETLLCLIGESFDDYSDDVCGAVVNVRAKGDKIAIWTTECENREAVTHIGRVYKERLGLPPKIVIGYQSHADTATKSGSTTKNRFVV
UniProt P60842: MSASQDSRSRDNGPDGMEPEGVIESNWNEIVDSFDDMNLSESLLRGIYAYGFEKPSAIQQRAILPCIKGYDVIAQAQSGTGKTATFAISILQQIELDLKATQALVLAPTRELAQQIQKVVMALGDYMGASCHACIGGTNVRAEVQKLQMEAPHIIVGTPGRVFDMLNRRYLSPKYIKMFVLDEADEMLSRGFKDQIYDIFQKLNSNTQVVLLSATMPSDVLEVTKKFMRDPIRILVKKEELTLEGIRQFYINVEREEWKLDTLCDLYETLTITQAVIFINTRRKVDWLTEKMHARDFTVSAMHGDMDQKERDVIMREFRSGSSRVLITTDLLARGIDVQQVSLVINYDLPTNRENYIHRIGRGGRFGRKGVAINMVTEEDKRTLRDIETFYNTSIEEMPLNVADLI

Experiments:
[1] = biological target: eIF4G (human (endogenous in RD)) (UniProt Q04637); test: proximity ligation; in situ Duolink PLA with antibodies against endogenous CDKAL1 and eIF4G in fixed CD133^high and CD133^low RD cells
[2] = biological target: eIF4E (human (endogenous in RD)) (UniProt P06730); test: pull-down; m^7GTP-sepharose beads capture eIF4E and its binding proteins from RD cell lysate (also MGG8, MGG18), 4 h at 4 °C, lysis buffer with 0.5% NP-40, western blot of the precipitate; also with urea-based denaturation and from cells expressing Control-, CDKAL1-, EIF4G- or EIF4E-shRNA
[3] = biological target: eIF4E (human (endogenous in RD)) (UniProt P06730); test: condition: only cells pretreated for 24 h with tunicamycin (1 µg mL^-1), BIO (5 × 10^-6 M) or CHIR-98014 (5 × 10^-6 M); pull-down; m^7GTP-sepharose beads, lysate of RD cells pretreated for 24 h with tunicamycin (1 µg mL^-1), BIO (5 × 10^-6 M) or CHIR-98014 (5 × 10^-6 M), western blot of the precipitate
[4] = biological target: eIF4A (human (endogenous in RD)) (UniProt P60842); test: proximity ligation; in situ Duolink PLA with anti-myc tag antibody and antibodies against endogenous eIF4A, eIF4G and eIF4E in fixed RD cells expressing myc-CDKAL1^WT; parental RD cells as control
[5] = biological target: eIF4E (human (endogenous in RD)) (UniProt P06730); test: as above
[6] = biological target: eIF4G (human (endogenous in RD)) (UniProt Q04637); test: as above

- binding [1]: binds
- binding [2]: binds
- binding [3]: no binding
B1: CDKAL1 (protein, UniProt Q5VV42 1-579)
chain: MPSASCDTLLDDIEDIVSQEDSKPQDRHFVRKDVVPKVRRRNTQKYLQEEENSPPSDSTIPGIQKIWIRTWGCSHNNSDGEYMAGQLAAYGYKITENASDADLWLLNSCTVKNPAEDHFRNSIKKAQEENKKIVLAGCVPQAQPRQDYLKGLSIIGVQQIDRVVEVVEETIKGHSVRLLGQKKDNGRRLGGARLDLPKIRKNPLIEIISINTGCLNACTYCKTKHARGNLASYPIDELVDRAKQSFQEGVCEIWLTSEDTGAYGRDIGTNLPTLLWKLVEVIPEGAMLRLGMTNPPYILEHLEEMAKILNHPRVYAFLHIPVQSASDSVLMEMKREYCVADFKRVVDFLKEKVPGITIATDIICGFPGETDQDFQETVKLVEEYKFPSLFINQFYPRPGTPAAKMEQVPAQVKKQRTKDLSRVFHSYSPYDHKIGERQQVLVTEESFDSKFYVAHNQFYEQVLVPKNPAFMGKMVEVDIYESGKHFMKGQPVSDAKVYTPSISKPLAKGEVSGLTKDFRNGLGNQLSSGSHTSAASQCDSASSRMVLPMPRLHQDCALRMSVGLALLGLLFAFFVKVYN

- binding [4]: binds
- binding [5]: binds
- binding [6]: binds
B2: myc-tagged CDKAL1 (protein, UniProt Q5VV42 1-579)
chain: B1 chain
